Among all 7,900 compounds or so, about 400 (5.1%) showed an effect of 50% or more. Some of the results follow.
Target: Parkinson's disease protein 7 (PARK7/DJ1) (human, UniProt Q99497)
Assay: primary screen, percent inhibition; read as competition with a fluorescent probe by fluorescence polarization; higher = more effect of the substance
Details: 100 µM
In short: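 Covalent fragments at 100 μM final were incubated 2 h with 0.2 μM PARK7, then 20 nM probe JYQ-107 added for a further 2 h. Fluorescence polarization read at 480/520 nm; relative FP loss versus reference controls gave remaining enzyme activity.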

Chain of Parkinson's disease protein 7 (PARK7/DJ1) (Q99497 whole entry, looked up): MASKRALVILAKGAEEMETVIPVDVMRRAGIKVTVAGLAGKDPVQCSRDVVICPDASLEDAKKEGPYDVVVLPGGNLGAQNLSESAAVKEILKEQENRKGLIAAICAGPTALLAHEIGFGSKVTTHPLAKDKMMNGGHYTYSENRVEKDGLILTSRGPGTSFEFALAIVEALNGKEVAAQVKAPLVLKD

SMILES	Inhibition %
N#CC1(CCCCl)CCOCC1	9.63%
Cn1c(S(=O)(=O)F)cc2ccccc21	-1.5%
C=CC(=O)N1CCOCC1(C)CC (stereo not drawn)	10.6%
C=CC(=O)N1CCc2ccc(C)cc21	4.18%
C=CC(=O)NCC1CCc2cccnc21 (stereo not drawn)	4.09%
N#Cc1nc(-c2ccco2)oc1N1CCN(C(=O)CCl)CC1	51.4%
C=CC(=O)NCCS(=O)(=O)N1CCOCC1	6.18%
Cc1ccsc1C=CC(=O)N1CCC(C(N)=O)CC1	9.43%
C=CC(=O)Nc1nnc(CC(F)(F)F)s1	8.25%
CC(C)c1csc(CNC(=O)c2cccnc2S)n1	4.25%
CC1(C)OB(c2cccc3c2CCC3)OC1(C)C	3.3%
C=CC(=O)NC1CCOCC1OC (stereo not drawn)	5.16%
O=S(=O)(Oc1ccccc1)c1ccc2c(c1)OCCCO2	16%
COc1cc(S(=O)(=O)n2ccc(C)n2)c(C)cc1C	8.3%
C=CC(=O)NCC1(C)CCC(C)CC1 (stereo not drawn)	4.28%
COCCNC(=O)C(C#N)=Cc1cccc2ccccc12	11.9%
CS(=O)(=O)NC1CCCN(C(=O)C=Cc2cccnc2)C1 (stereo not drawn)	5.3%
O=C(NCc1ccc(F)c(CO)c1)c1cccnc1S	6.71%

SMILES	Inhibition %
O=C1CCC(CC(=O)Nc2cccc(S(=O)(=O)F)c2)CC1	98.3%
Cc1nc(C#N)c(N)o1	16.5%
O=C1NCC12CCCOC2 (stereo not drawn)	6.54%
CC(C)OCCN(C)c1nc2ccccn2c1C#N	3.68%
O=S(=O)(F)CCn1nnc(-c2ccccc2)n1	35.7%
C=CC(=O)N1CCCC1C(C)(C)CC (stereo not drawn)	12.9%
Cc1ccc(C=CC(=O)N2CCC(C)(C(=O)O)C2)o1 (stereo not drawn)	6.29%
Cc1ccccc1-n1cnnc1SC1CC(C)OC1=O (stereo not drawn)	4.79%
COc1cccc(C2CO2)c1 (stereo not drawn)	21.3%
Oc1nc(S)nc2scnc12	4.25%
Cc1ccc(N2CCCC(CC(N)=O)CC2)nc1C#N (stereo not drawn)	15.2%
C=CC(=O)N1CCCC(CCC(N)=O)C1 (stereo not drawn)	6.39%
O=C(O)CCn1c(S)nc2ccccc2c1=O	7.16%
C=CC(=O)N1CCCN(c2nc(C)ns2)CC1	11.5%
CC(C)(CO)CNC(=O)c1cccnc1S	6.61%
Cc1ccc(C)c(Cn2cnc(C#N)n2)c1	2.61%
O=c1c2nccn2ccn1CCS(=O)(=O)F	9.64%
Cc1cc(B2OC(C)(C)C(C)(C)O2)cc(N)n1	5.05%

Reference: article PMC9574860, “Chemical Toolkit for PARK7: Potent, Selective, and High-Throughput” (Journal of Medicinal Chemistry, 2022)
